± gives the uncertainty stated by the source. The full ranking holds about 9,900 compounds; the median of “viability index relative to DMSO control” is about 1, and the lowest 2% start at about 0.85. The list shows a part of the results.

The assay deals with Plasmodium falciparum NF54 stage V gametocytes. As to the kind of experiment: viability index relative to DMSO control (fraction); higher = less gametocyte killing. The following applies: 2.5 µM, library set: Broad Institute DOS, incubation time: 72 h. Put shortly: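 Stage V gametocytes of P. falciparum NF54 were held in serum-free screening medium at 0.75% gametocytemia and 1.25% hematocrit, 10 µl per well of a 1,536-well plate, and exposed to compound at 2.5 µM for 72 hr at 37°C under low oxygen. A 3 µl mix of 2.5 µM MitoTracker Red CMXRos with 0.13% saponin was then added for one to two hours, after which one field per well was imaged and red particles of 20–70 µm2 were counted. The viability index equals this count divided by the plate mean from wells given solvent alone.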
Take `COc1ccccc1-c1ccc([C@H]2[C@@H](CO)N[C@@H]2CNC(=O)C2CC2)cc1`: the viability index was 0.999 ± 0.091.
Then `O=C(C[C@@H]1CC[C@H]2[C@@H](COC[C@H](O)CN2C(=O)Nc2cc(Cl)cc(Cl)c2)O1)N1CCOCC1`, with 1.089 ± 0.007.
The result for `O=C(C[C@@H]1CC[C@H](NC(=O)Nc2ccc(C(F)(F)F)cc2)[C@@H](CO)O1)NCc1cccc(F)c1` reads 0.989 ± 0.041.
The result for `Cc1ccccc1-c1ccc([C@H]2[C@@H]3CN(C(=O)C4CCOCC4)C[C@H]2N3)cc1` reads 1.07 ± 0.07; that for `COc1ccc2c3c([nH]c2c1)[C@@H](CO)NC[C@]31CCN(Cc2ccc(F)cc2)CC1`, 0.963 ± 0.05; that for `CCNC(=O)C[C@H]1CC[C@@H]2[C@H](COC[C@H](O)CN2C(=O)c2ccccn2)O1`, 1.1 ± 0.12.
`CCCC(=O)Nc1ccc2c(c1)C(=O)N(C)[C@H]1CC[C@H](CC(=O)NCc3cccc(F)c3)O[C@H]1CO2` gave a viability index of 1.07 ± 0.048.
Then `O=C(Cc1ccccn1)N1CC2(C1)[C@@H](c1ccccc1)[C@H](CO)N2C(=O)c1ccncc1`, with 1.12 ± 0.045; and `CO[C@@H](CN(C)Cc1cc(F)ccc1F)[C@@H](C)CN(C(=O)Nc1ccc(C(F)(F)F)cc1)[C@H](C)CO`, with 0.99 ± 0.028.
Then `COc1ccc([C@H]2C/C=C/C[C@@H](C)Oc3ccccc3C(=O)N(C)[C@H](C(C)C)C(=O)N2)c(OC)c1.COc1ccc([C@H]2C/C=C\C[C@@H](C)Oc3ccccc3C(=O)N(C)[C@H](C(C)C)C(=O)N2)c(OC)c1`, with 0.964 ± 0.056.
The result for `COc1ccc(NC(=O)N(C)C[C@@H]2OCc3ccccc3-c3ccccc3C(=O)N([C@@H](C)CO)C[C@@H]2C)c(OC)c1` reads 0.9868 ± 0.0088.
`C[C@H]1CN([C@@H](C)CO)C(=O)c2ccccc2-c2ccccc2CO[C@H]1CN(C)C(=O)[C@H]1CCCN1C` yielded a viability index of 0.981 ± 0.14.
Then `Cc1noc(C)c1NC(=O)N(C)C[C@@H]1OCc2cn(nn2)CCCC(=O)N([C@H](C)CO)C[C@@H]1C`, with 1.08 ± 0.1; and `O=C(Cc1ccccn1)N1CC(=O)N2[C@H](CO)[C@H](c3ccc(C#CCC4CCCC4)cc3)[C@@H]2C1`, with 1.01 ± 0.092.
Then `CCCN1C[C@H](C)[C@H](OC)CN(C)C(=O)c2cc(NS(=O)(=O)c3ccccc3)ccc2OC[C@H]1C`, with 0.934 ± 0.08; and `O=C(C1CCOCC1)N1CC[C@@H]2[C@@H](CO)Nc3ccc(-c4cccc(F)c4)cc3[C@@H]21`, with 1.05 ± 0.059.
The result for `Cc1noc(C)c1S(=O)(=O)N(C)C[C@H]1OCc2ccccc2-c2ccccc2C(=O)N([C@H](C)CO)C[C@H]1C` reads 1.017 ± 0.0036; that for `O=C(C1CCC1)N1CC(=O)N2[C@H](C1)[C@H](c1ccc(Br)cc1)[C@@H]2CO`, 1.02 ± 0.0049; that for `C/C=C/c1ccc([C@@H]2[C@H](CO)N(C(C)=O)[C@H]2CN(CC)C(=O)CN(C)C)cc1`, 1.08 ± 0.038.
For the molecule `O=C(C[C@H]1C=C[C@H](NC(=O)Nc2cccc(F)c2)[C@@H](CO)O1)NCC1CCCCC1`, the viability index is 0.95 ± 0.055.
Then `COc1ccc2c3c([C@H](CO)N(Cc4nccs4)C[C@]33CCN(CC4CCCC4)CC3)n(C)c2c1`, with 0.841 ± 0.028; and `CN(C)C(=O)c1cccc(-c2ccc([C@H]3[C@H]4CNC[C@@H]3N4S(=O)(=O)Cc3ccccc3)cc2)c1`, with 1.04 ± 0.021; and `COc1ccc2c3c([nH]c2c1)[C@H](CO)N(Cc1ccncc1)C[C@]31CN(Cc2ccc(cc2)-c2ccccn2)C1`, with 1.008 ± 0.01.
Then `O=C(NC[C@H]1[C@H](c2ccccc2)[C@H](CO)N1C(=O)Cc1ccncc1)C1CCC1`, with 1.05 ± 0.013; and `C[C@@H]1CCCCO[C@@H](CN(C)CC2CC2)[C@H](C)CN([C@@H](C)CO)C(=O)c2cc(NC(=O)c3ccccc3)ccc2O1`, with 1.14 ± 0.018.
Molecule `O=C(Nc1ccc(C(F)(F)F)cc1)N[C@H]1C=C[C@H](CC(=O)N2CCCCC2)O[C@@H]1CO` came in with a viability index of 1.15 ± 0.075.
The result for `C[C@H]1CCCCO[C@@H](CN(C)Cc2ccncc2)[C@@H](C)CN([C@@H](C)CO)C(=O)c2cc(NC(=O)Cc3ccccc3)ccc2O1` reads 1.03 ± 0.088; that for `C[C@H](CO)N1C[C@H](C)[C@H](CN(C)S(=O)(=O)c2cccs2)Oc2ccc(NC(=O)Nc3cccc4ccccc34)cc2C1=O`, 0.9579 ± 0.0044; that for `O=C(C[C@H]1C[C@@H]2c3cc(NS(=O)(=O)c4ccc(F)cc4)ccc3O[C@@H]2[C@H](CO)O1)N1CCc2ccccc2C1`, 0.95 ± 0.08.
Then `CCC(=O)N1C[C@@H](O)COC[C@H]2O[C@H](CC(=O)NC)CC[C@@H]21`, with 1.09 ± 0.025; and `O=C(CN1CCOCC1)N1CCCCN2[C@H](CO)[C@@H](c3ccc(Br)cc3)[C@@H]2C1`, with 1 ± 0.1; and `C[C@@H]1CCCCO[C@@H](CN(C)C(=O)CCCN(C)C)[C@@H](C)CN([C@H](C)CO)C(=O)c2cc(NS(=O)(=O)c3ccc(Cl)cc3)ccc2O1`, with 1.17 ± 0.14.
Then `Cc1cccc(S(=O)(=O)N2C[C@H]3[C@@H](c4ccccc42)[C@H](CO)N3C(=O)c2ccccc2)c1`, with 1.09 ± 0.013; and `O=S(=O)(c1ccccc1)N1CC2(C1)[C@H](c1ccccc1)[C@@H](CO)N2CC1CCOCC1`, with 1.02 ± 0.079.
The molecule `CCCC#Cc1ccc([C@H]2[C@H]3CN(C(=O)c4cccnc4)CC(=O)N3[C@H]2CO)cc1` came in with a viability index of 0.964 ± 0.051.
Then `C[C@H]1CN([C@@H](C)CO)C(=O)CCCn2cc(nn2)CO[C@@H]1CN(C)C(=O)c1ccc(N2CCN(C)CC2)cc1`, with 0.9784 ± 0.0069.
Then `CN(C)CC(=O)N1[C@H](C#N)[C@@H](c2ccc(C#CC3CCCCC3)cc2)[C@@H]1CO`, with 1.09 ± 0.021.
Then `COc1ccc(-c2ccc3n(c2=O)C[C@@H]2[C@@H](CO)[C@H](C(=O)NCC4CC4)N(C(=O)NC(C)C)[C@H]32)cc1`, with 1.06 ± 0.11.
For `CCCC#Cc1ccc2c(c1)O[C@H](CN(C)Cc1ccccn1)[C@H](C)CN([C@H](C)CO)S2(=O)=O`, the viability index came out at 1.028 ± 0.0052.
The result for `C/C=C/c1ccc([C@@H]2[C@H](CO)N(C(C)=O)[C@H]2CN(C(C)=O)C2CCCC2)cc1` reads 1.04 ± 0.074; that for `C[C@H](CO)N1C[C@H](C)[C@H](CN(C)S(=O)(=O)c2ccc([N+](=O)[O-])cc2)OCc2ccccc2-c2c(n(C)c3ccccc23)C1=O`, 0.969 ± 0.015.
The result for `CCCNC(=O)N1[C@H](CO)[C@H]2c3ccccc3N(C(=O)Nc3cccc(Cl)c3)C[C@H]21` reads 1.02 ± 0.045; that for `O=C(NCC[C@@H]1CC[C@@H](NS(=O)(=O)c2ccc(F)cc2)[C@@H](CO)O1)c1ccc2c(c1)OCO2`, 0.963 ± 0.095.
The molecule `C/C=C/c1ccc([C@@H]2[C@@H](CO)N(CC3CCCC3)C23CN(S(=O)(=O)CC)C3)cc1` showed a viability index of 1.037 ± 0.0019.
